Results from paper PMC4191403.
Results are given in words; binding and its absence hold for the method and conditions named. For part of these data: In cells and extracts the contact can be indirect. Some results given as binding are weak or reduced against the parent protein; the word gives no strength. Blank lines part the entries; values can stand above or below the substance they belong to.

Amino acid sequences for entries named in this document (tags omitted). A change or cut given only in a name is not applied to a line headed by its entry. Chains listed by the source or under a name are the forms on record and can include a tag or linker. Residues count along the entry.
UniProt P38398: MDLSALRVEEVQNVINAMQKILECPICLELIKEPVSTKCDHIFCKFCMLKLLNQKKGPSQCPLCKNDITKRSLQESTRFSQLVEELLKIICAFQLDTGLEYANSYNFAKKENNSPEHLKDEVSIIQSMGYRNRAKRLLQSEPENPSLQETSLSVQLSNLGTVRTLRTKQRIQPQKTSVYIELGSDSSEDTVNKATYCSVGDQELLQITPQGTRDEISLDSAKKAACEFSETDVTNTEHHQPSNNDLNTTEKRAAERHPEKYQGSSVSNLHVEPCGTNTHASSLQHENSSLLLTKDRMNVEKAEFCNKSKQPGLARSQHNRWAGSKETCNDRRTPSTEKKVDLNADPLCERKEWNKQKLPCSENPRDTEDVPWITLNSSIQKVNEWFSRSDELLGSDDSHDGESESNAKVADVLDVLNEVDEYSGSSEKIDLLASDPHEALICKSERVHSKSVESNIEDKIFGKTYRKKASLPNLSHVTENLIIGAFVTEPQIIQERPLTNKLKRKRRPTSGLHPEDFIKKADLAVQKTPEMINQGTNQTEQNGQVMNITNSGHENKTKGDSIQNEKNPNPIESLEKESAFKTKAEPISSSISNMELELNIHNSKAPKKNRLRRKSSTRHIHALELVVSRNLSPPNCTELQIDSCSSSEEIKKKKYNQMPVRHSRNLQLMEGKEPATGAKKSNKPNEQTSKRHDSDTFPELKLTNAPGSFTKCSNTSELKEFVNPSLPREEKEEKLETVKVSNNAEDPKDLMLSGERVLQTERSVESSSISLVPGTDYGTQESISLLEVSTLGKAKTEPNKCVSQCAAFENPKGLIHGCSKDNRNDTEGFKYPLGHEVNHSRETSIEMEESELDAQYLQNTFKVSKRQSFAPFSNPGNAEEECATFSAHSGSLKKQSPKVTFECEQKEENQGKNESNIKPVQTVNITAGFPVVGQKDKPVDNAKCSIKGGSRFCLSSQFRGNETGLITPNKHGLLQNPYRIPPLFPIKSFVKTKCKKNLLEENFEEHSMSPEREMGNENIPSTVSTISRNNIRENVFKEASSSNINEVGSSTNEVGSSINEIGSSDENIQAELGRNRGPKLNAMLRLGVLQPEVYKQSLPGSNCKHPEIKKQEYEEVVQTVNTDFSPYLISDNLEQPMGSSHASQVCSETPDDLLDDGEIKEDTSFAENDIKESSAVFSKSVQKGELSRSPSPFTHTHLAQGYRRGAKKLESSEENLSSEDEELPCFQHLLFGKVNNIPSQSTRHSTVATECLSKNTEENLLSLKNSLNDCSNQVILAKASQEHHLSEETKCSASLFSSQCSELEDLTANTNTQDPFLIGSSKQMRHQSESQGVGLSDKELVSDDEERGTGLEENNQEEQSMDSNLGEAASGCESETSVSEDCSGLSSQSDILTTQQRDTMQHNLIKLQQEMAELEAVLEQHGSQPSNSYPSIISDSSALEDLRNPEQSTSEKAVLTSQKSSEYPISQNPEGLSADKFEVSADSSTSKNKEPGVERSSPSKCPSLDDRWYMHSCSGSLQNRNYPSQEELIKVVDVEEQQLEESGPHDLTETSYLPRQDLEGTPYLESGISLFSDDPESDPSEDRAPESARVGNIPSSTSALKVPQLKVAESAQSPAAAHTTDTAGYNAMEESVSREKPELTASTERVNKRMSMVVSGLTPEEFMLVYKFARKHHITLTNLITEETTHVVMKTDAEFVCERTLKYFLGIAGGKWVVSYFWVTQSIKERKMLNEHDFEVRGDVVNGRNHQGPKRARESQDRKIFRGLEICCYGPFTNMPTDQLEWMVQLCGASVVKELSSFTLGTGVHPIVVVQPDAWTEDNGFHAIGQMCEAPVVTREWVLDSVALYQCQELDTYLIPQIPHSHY
FLAG-tagged BRCA1 fragment, amino acids 1-1315: residues 1-1315 of P38398
FLAG-tagged BRCA1 fragment, amino acids 302-1863: residues 302-1863 of P38398
FLAG-tagged BRCA1 fragment, amino acids 1313-1863: residues 1313-1863 of P38398
UniProt P78527: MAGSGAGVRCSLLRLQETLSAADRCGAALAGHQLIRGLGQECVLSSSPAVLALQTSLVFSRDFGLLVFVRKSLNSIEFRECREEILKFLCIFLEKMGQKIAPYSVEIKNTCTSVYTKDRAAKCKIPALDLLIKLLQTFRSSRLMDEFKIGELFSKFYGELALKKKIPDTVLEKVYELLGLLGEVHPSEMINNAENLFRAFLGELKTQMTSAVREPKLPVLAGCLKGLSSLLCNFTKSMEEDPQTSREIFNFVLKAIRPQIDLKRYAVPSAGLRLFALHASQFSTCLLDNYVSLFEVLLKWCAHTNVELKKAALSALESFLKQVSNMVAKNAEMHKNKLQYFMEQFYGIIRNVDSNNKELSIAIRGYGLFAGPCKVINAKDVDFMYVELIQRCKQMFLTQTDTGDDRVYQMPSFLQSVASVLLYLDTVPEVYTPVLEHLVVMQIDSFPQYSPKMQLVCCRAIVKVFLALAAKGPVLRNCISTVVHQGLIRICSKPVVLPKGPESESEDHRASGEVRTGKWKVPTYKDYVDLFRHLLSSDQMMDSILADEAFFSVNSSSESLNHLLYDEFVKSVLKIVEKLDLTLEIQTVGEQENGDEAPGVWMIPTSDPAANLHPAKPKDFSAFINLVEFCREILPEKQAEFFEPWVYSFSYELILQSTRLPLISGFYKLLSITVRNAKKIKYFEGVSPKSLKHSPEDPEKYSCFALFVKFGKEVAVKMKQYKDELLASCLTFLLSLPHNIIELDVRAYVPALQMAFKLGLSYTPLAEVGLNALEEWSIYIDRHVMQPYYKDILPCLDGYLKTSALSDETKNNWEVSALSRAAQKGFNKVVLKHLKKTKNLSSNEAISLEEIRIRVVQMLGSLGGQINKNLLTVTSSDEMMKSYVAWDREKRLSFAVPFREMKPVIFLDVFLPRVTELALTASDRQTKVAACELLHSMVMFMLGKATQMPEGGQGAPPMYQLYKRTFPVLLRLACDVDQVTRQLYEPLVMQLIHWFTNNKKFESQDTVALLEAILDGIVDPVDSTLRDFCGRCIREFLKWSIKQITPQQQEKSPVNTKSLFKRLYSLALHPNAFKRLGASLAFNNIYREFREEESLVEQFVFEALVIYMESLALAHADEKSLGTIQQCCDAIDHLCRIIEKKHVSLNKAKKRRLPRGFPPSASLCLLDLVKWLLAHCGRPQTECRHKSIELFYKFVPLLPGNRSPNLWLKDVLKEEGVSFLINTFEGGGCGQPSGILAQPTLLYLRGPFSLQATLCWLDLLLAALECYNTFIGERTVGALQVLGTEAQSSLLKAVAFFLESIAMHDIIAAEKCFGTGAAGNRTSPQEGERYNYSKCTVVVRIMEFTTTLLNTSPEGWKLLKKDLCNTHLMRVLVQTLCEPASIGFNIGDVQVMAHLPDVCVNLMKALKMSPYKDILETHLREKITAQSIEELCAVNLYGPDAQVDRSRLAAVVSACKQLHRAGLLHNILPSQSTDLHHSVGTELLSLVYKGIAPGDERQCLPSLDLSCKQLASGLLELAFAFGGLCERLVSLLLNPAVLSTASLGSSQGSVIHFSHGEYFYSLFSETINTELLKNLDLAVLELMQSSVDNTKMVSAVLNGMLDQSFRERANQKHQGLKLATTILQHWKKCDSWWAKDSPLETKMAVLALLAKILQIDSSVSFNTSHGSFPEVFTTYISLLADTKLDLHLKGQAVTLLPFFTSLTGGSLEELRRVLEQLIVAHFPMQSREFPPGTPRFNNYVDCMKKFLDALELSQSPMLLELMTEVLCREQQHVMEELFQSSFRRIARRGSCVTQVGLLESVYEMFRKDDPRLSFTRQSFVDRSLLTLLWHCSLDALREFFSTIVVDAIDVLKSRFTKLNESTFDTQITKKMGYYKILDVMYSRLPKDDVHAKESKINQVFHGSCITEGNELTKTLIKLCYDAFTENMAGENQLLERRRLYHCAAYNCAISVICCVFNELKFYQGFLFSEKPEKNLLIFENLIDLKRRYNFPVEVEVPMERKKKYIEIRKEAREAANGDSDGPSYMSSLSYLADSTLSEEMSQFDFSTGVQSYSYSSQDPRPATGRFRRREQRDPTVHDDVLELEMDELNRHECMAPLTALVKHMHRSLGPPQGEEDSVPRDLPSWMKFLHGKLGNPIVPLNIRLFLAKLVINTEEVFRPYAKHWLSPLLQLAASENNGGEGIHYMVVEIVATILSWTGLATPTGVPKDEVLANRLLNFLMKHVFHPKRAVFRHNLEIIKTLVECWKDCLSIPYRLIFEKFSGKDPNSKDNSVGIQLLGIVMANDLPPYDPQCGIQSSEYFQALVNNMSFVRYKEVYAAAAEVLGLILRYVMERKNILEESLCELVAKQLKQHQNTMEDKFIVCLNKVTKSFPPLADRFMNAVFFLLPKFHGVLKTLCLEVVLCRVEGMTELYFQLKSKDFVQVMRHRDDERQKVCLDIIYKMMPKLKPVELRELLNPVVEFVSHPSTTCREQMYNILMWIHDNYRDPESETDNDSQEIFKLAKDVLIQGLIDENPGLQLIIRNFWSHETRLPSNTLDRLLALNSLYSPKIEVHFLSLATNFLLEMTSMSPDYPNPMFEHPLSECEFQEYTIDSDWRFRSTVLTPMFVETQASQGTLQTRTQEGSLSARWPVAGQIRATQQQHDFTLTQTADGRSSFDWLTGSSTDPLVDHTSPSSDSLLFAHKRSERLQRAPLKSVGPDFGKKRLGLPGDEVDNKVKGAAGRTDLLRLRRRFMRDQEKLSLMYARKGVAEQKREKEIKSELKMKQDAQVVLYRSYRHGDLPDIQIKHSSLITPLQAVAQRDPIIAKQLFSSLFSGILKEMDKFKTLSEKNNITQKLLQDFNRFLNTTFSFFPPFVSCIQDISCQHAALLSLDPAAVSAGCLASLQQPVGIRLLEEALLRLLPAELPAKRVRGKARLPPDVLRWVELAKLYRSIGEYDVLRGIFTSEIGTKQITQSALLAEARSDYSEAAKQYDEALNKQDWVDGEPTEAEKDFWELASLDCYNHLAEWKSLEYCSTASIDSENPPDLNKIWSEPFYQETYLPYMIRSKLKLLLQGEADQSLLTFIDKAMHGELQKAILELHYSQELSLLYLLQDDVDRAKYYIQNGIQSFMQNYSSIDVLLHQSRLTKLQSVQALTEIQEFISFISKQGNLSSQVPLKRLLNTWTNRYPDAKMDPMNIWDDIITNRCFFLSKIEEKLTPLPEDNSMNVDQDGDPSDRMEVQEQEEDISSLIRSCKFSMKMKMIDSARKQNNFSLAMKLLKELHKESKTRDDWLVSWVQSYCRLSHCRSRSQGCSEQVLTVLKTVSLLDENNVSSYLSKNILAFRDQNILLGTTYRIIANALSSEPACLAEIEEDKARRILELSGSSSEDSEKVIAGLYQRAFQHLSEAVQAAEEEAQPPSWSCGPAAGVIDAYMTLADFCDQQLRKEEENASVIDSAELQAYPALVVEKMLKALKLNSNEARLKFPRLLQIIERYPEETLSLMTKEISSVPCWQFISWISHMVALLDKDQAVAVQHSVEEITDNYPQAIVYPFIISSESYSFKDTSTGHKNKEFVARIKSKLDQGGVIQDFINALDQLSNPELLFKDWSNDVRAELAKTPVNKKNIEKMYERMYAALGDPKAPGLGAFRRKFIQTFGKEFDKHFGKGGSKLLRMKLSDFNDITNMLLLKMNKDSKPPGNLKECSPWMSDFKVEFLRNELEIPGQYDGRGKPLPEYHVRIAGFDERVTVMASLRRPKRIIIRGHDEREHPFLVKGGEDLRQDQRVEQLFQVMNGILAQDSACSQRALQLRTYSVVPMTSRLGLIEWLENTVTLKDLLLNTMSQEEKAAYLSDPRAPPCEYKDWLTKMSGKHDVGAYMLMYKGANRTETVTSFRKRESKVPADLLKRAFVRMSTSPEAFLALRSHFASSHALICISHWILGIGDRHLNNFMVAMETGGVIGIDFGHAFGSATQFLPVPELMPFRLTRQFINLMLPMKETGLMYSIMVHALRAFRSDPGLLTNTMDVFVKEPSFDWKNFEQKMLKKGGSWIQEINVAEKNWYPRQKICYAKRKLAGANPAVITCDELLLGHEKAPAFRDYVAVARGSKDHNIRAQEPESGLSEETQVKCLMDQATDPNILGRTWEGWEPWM
FLAG-tagged N-terminal fragment of DNA-PKcs (amino acids 1-2713): residues 1-2713 of P78527
GST-tagged DNA-PKcs fragment, amino acids 1500-2000: residues 1500-2000 of P78527

Experiments:
[1] = target: BRCA1 (Breast Cancer 1, early onset), endogenous in HeLa cells (human (endogenous in HeLa)) (UniProt P38398); assay: co-IP; endogenous proteins from HeLa lysate (50 mM Tris pH 7.5, 250 mM NaCl, 1 mM EDTA, 0.1% NP-40), antibody on protein G agarose, 4°C overnight; reciprocal IPs; cells mock or 10 Gy irradiated, with or without 100 μg/ml ethidium, asynchronous or synchronised in S or non-S phase
[2] = target: FLAG-tagged full-length BRCA1 (UniProt P38398); assay: co-IP; FLAG-tagged BRCA1 or fragments transiently expressed in HeLa, IP with FLAG antibody, blot for endogenous DNA-PKcs
[3] = target: FLAG-tagged BRCA1 fragment, amino acids 1-1315 (UniProt P38398); assay: as above
[4] = target: FLAG-tagged BRCA1 fragment, amino acids 1313-1863 (UniProt P38398); assay: as above
[5] = target: FLAG-tagged BRCA1 fragment, amino acids 302-1863 (UniProt P38398); assay: as above
[6] = target: FLAG-tagged BRCA1 fragment, amino acids 1-304 (UniProt P38398); assay: as above
[7] = target: GST-tagged RING finger domain of BRCA1 (amino acids 1-304) (UniProt P38398); assay: pull-down; GST pull-down: purified endogenous DNA-PKcs incubated with GST, GST-RING or GST-BRCT, with or without phosphatase treatment of DNA-PKcs; both purified
[8] = target: GST-tagged tandem BRCT domain of BRCA1 (amino acids 1599-1863) (UniProt P38398); assay: as above
[9] = target: DNA-dependent protein kinase catalytic subunit (DNA-PKcs), endogenous in HeLa cells (human (endogenous in HeLa)) (UniProt P78527); assay: pull-down; DNA-PKcs immunoprecipitated from HeLa (mock or 20 Gy) with antibody 25-4, washed, left on protein A sepharose, untreated or treated with lambda phosphatase, incubated with purified GST or GST-tagged fragments in wash buffer (50 mM Tris pH 7.5, 150 mM NaCl, 1 mM EDTA, 1% NP-40, 10% glycerol) with BSA, ambient temperature, 2 h; only the binder purified
[10] = target: FLAG-tagged N-terminal fragment of DNA-PKcs (amino acids 1-2713) (UniProt P78527); assay: pull-down; FLAG-tagged N-PKcs or C-PKcs immunoprecipitated from Sf9 lysates with FLAG antibody, left on protein A sepharose, incubated with purified GST or GST-BRCT in wash buffer with BSA; only the binder purified
[11] = target: GST-tagged DNA-PKcs fragment, amino acids 1500-2000 (UniProt P78527); assay: pull-down; purified GST-tagged DNA-PKcs fragments left on glutathione sepharose, incubated with purified His6-tagged BRCA1 tandem BRCT domain; blot with anti-His and GST antibodies; both purified

binding [1]: binds
binding [2]: binds
binding [3]: no binding
binding [4]: binds
binding [5]: binds
binding [6]: no binding
Substance: DNA-dependent protein kinase catalytic subunit (DNA-PKcs), endogenous in HeLa cells (from UniProt P78527 1-4128)

binding [7]: no binding
binding [8]: binds
Substance: Endogenous full-length DNA-PKcs, purified (from UniProt P78527 1-4128)

binding [11]: binds weakly
Substance: His6-tagged tandem BRCT domain of BRCA1 (amino acids 1599-1863) (from UniProt P38398 1599-1863) (domain or fragment)

Further lines, the substance ahead of its results:

Substance: GST-tagged RING finger domain of BRCA1 (amino acids 1-304) (from UniProt P38398 1-304) (domain or fragment)
binding [9]: no binding

Substance: GST-tagged tandem BRCT domain of BRCA1 (amino acids 1599-1863) (from UniProt P38398 1599-1863) (domain or fragment)
binding [10]: binds
binding [9]: binds
